The results in this text go back to the supplement of paper PMC11417369.

The list shows a part of the results.

This test concerns PfAP2-HC AP2 domain (GST-tagged). In words: gcPBM binding intensity (ln(normalized median fluorescence intensity)); higher = stronger DNA binding. Put shortly:
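After 1 h on an Agilent 4 × 180k array of primer-extended double-stranded 36-bp intergenic genomic probes and negative controls, bound GST-tagged P. falciparum DNA-binding domains were detected with Alexa488 anti-GST antibody and scanned at 488 nm. The domains had been expressed in E. coli, and binding took place in 1× PBS with 1% milk, 0.2 mg/ml BSA, 0.5% salmon testes DNA and 0.03% Triton X-100. Binding intensity is the highest Masliner-normalised natural-log median intensity across replicate spots of either probe orientation.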
Take “CAGGCACTAATAAACACACACATATAAATATAAATA [CACACA_site6320]”: the “gcPBM binding intensity (ln)” value came out at 10.1.

Turning to “ACATCAAGCAGACACACACACACACCCACCCACCCA [CACACA_site8012]”, the “gcPBM binding intensity (ln)” value stood at 11.5.

In the case of “AATTTCTACTATTGTATGCACTTTCATACATACATA [GTGCAC_site9924]”, the “gcPBM binding intensity (ln)” value amounted to 9.92.

With “AACACAAGAACAGAACGTACACACACATATATATAT [XGTACX_site7347]”, the “gcPBM binding intensity (ln)” value is 10.4.

For the sequence “AGGTGTGAGACCACGTTCACAAAATAAAATACATAA [CACACA_negctrl_site326]”, the “gcPBM binding intensity (ln)” value worked out at 9.73.

Consider “AACAACTATTAATTTACACACATGTATATATTTTAC [CACACA_site3116]”, for which the “gcPBM binding intensity (ln)” value came out at 10.

“AATAGCTAGCTGTGCACACAAACATATTTTCCAAAT [CACACA_site880]”: the “gcPBM binding intensity (ln)” value came to 9.91.

With “ATATATATATAATTTTGTACATAATAGCAATTCTAA [XGTACX_site653]”, the “gcPBM binding intensity (ln)” value came out at 9.53.

Take “GGATGGAGTAGTTAAGCATAATAAATAAAATTATGT [CACACA_negctrl_site578]”: the “gcPBM binding intensity (ln)” value came out at 9.58.

As for “GTTTTAAACAAAAATTGTACAATATAATCTTCCTAT [XGTACX_site2851]”, the “gcPBM binding intensity (ln)” value came out at 9.55.

Regarding “CAAAACCTTTTATGTACACACATATACATCCCACTT [CACACA_site5716]”, the “gcPBM binding intensity (ln)” value came out at 10.3.

“ACCTCACAAATGAATACACACAAACATATATATTTA [CACACA_site4976]”: the “gcPBM binding intensity (ln)” value was found to be 10.

As for “TATTTTATTATACCAAGTACAAAATTTAAATATGAA [XGTACX_site5478]”, the “gcPBM binding intensity (ln)” value stood at 9.49.

Regarding “TATAAGAGAATATATACACACAAAAATAAATACAGT [CACACA_site5000]”, the “gcPBM binding intensity (ln)” value came to 10.9.

As for “ATTTTATGTTGAAAGTGTACGTATTAATATGTAGAA [XGTACX_site245]”, the “gcPBM binding intensity (ln)” value was 9.82.

On to “CCACAAGCAGCGGAAACATGCATATGTTGAAATAAT [TGCATGCA_site610]”, for which the “gcPBM binding intensity (ln)” value was 9.39.

For “TCATTTCACAAACACACACACACAATATATTTCCTT [CACACA_site3905]”, the “gcPBM binding intensity (ln)” value worked out at 10.3.

“AACAAAAAAAAAAAATGTACATATATATAATATATT [XGTACX_site3829]”: the “gcPBM binding intensity (ln)” value came out at 9.71.

As for “GTTAAGAATATGTGTACACATATACATAAATACATA [CACACA_site4254]”, the “gcPBM binding intensity (ln)” value was determined as 9.85.

With “TAATAATATTATTAATGTACAAATATATATACATAT [XGTACX_site7348]”, the “gcPBM binding intensity (ln)” value was 9.58.

On to “TATATATATATATATTGTACCCTTTTCAAACTTCTC [XGTACX_site2812]”, for which the “gcPBM binding intensity (ln)” value turned out to be 9.39.

As for “TTTTTCTTTTTCTTTTTTTCTTTTTTTTTTTTTTTC [GTGCAC_negctrl_site727]”, the “gcPBM binding intensity (ln)” value turned out to be 9.21.

For the sequence “CAGACGCACGTATTTGCACACATTGCCACGTAATTA [CACACA_site3349]”, the “gcPBM binding intensity (ln)” value turned out to be 10.2.

As to “AACCATTCAACTGATGCATGCATTTAACATATAAAT [TGCATGCA_site961]”, the “gcPBM binding intensity (ln)” value was 9.59.

On to “GGATTGATAAGTGGTACACACATATATATTATATAT [CACACA_site2866]”, for which the “gcPBM binding intensity (ln)” value was 9.96.

Take “GCATTGGGAATATATAGTACATATATATATATATAA [XGTACX_site2967]”: the “gcPBM binding intensity (ln)” value was determined as 9.56.

Take “AAATATAAAAATAGCACACATATATACCTATATATA [CACACA_site4204]”: the “gcPBM binding intensity (ln)” value is 9.85.

On to “AAAAAAATTGGGAAAAGTACTTGCAGCTAGCTAAAA [XGTACX_site5178]”, for which the “gcPBM binding intensity (ln)” value is 9.69.

On to “TTAAAAAAAATTTCAAGTACAAAGTAATATATATAT [XGTACX_site5718]”, for which the “gcPBM binding intensity (ln)” value stood at 9.61.

As to “AAACAAATATAATATTGTACATATATATATATATAT [XGTACX_site3105]”, the “gcPBM binding intensity (ln)” value was found to be 9.72.

For the sequence “TATTTGCAATATAACACACACAAAAAAAGACTCGGA [CACACA_site6891]”, the “gcPBM binding intensity (ln)” value worked out at 10.2.

As to “CATATATATATATATTGTACACATTTTTTATAAAAA [XGTACX_site2526]”, the “gcPBM binding intensity (ln)” value was found to be 9.49.

On to “AATTATACATTATATTGTACATATGAATAATTAAAA [XGTACX_site6829]”, for which the “gcPBM binding intensity (ln)” value worked out at 9.58.

Turning to “TATATGTAATATATATGTACGTATAATATAATATTG [XGTACX_site8620]”, the “gcPBM binding intensity (ln)” value was 9.69.

Regarding “ATACAAATAAAAAAAAAAATTATAAAATTATAAAAT [CACACA_negctrl_site914]”, the “gcPBM binding intensity (ln)” value came out at 9.53.

For the sequence “AGTGATAATTTAAAAAGTACAAATGAAATTTAGCTA [XGTACX_site3375]”, the “gcPBM binding intensity (ln)” value was found to be 9.67.

For “TATATATAAAGCAGTACACACATTTATTTTAGATAC [CACACA_site3387]”, the “gcPBM binding intensity (ln)” value worked out at 9.96.

As for “AGAGAGAAAGCTATAACATGCAAAAATTTTTAGAAC [TGCATGCA_site420]”, the “gcPBM binding intensity (ln)” value came to 9.94.

Regarding “TTTGTAACTTCTTTCACACATATATATATATATATA [CACACA_site5603]”, the “gcPBM binding intensity (ln)” value amounted to 9.73.

Regarding “GTGTGCAAAAATTGTTGTACATTATATATAAAAAAA [XGTACX_site3246]”, the “gcPBM binding intensity (ln)” value worked out at 9.97.

Take “TTTCACATATATATGGTGCATATTTTATGTGTAAAT [GTGCAC_site9937]”: the “gcPBM binding intensity (ln)” value worked out at 9.7.

For “CTATTATCGGTTCCTACACACAAATATAGATGTCTA [CACACA_site7651]”, the “gcPBM binding intensity (ln)” value was determined as 9.88.

Take “TATATAATACAAAAGGGTACATTAACATATTATATA [XGTACX_site3196]”: the “gcPBM binding intensity (ln)” value amounted to 9.69.

“TGGAATAAAAAAAGGAGTACAATTAATTATTCTTAA [XGTACX_site8299]”: the “gcPBM binding intensity (ln)” value came to 9.5.

Consider TATATATATATATATGTGCACATATTTATATGTTTT, for which the “gcPBM binding intensity (ln)” value came to 9.64.

As to “GAAATTAAATGACATACACACTATATTATATATTTT [CACACA_site5693]”, the “gcPBM binding intensity (ln)” value is 9.83.

On to “TAGATAGATTAAAATACATGCATATTATTAAAAAAT [TGCATGCA_site739]”, for which the “gcPBM binding intensity (ln)” value is 9.59.

For the sequence “CACCCATACACATACAAACACACATTCTATATATAT [CACACA_site1600]”, the “gcPBM binding intensity (ln)” value was determined as 10.1.

On to “CATACATACATACATACACACATACATATGTATATA [CACACA_site7216]”, for which the “gcPBM binding intensity (ln)” value stood at 10.1.

Consider “AGCATAAAAATGATATGTACATATATATATATATAT [XGTACX_site2836]”, for which the “gcPBM binding intensity (ln)” value turned out to be 9.79.

Take “ATTTAATGTATTTTGCGTACGAATTATTTTATTTCA [XGTACX_site7331]”: the “gcPBM binding intensity (ln)” value amounted to 9.9.

For “TATCTTCAATGTGAAAGTACTTAAATTGTTATAAAA [XGTACX_site2586]”, the “gcPBM binding intensity (ln)” value stood at 9.15.

Consider “AATCATAAACATTATGCACACAAAAATAAAAAAAAA [CACACA_site8289]”, for which the “gcPBM binding intensity (ln)” value was 9.9.

Turning to “TATCAAAAAAAAAGTAGTACGATAATAGTTTCCCAA [XGTACX_site1812]”, the “gcPBM binding intensity (ln)” value was 9.56.

Turning to “ACTTATAATATTTAGTGTACATATTGTGACTAATAC [XGTACX_site1508]”, the “gcPBM binding intensity (ln)” value is 9.78.

With “AAAAAAAAAACAAATGCATGTAATATAAGAATTACA [TGCATGCA_site908]”, the “gcPBM binding intensity (ln)” value stood at 9.7.

Consider “TATTTATAAATTTACACACACACATGTGAACATAAA [CACACA_site1909]”, for which the “gcPBM binding intensity (ln)” value amounted to 10.
